Source: the supplement of paper PMC6089552
In all, about 3,200 compounds went through this assay and about 300 (9.4%) showed activity. This is a selection; strong and weak results do not stand in their true shares.

Tested on: A673/TR/shEF
Test: cell viability (LOESS-normalised, relative to median of negative controls) (log2 ratio); higher = more viable cells (less compound effect), active = hit call of the paper (over 3 MAD below the median)
Details: treatment time: 72 h
Procedure, shortened: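 Viability of A673/TR/shEF Ewing sarcoma cells was determined by CellTiter-Glo luminescence. The cells, at 1,500 per well in 384-well plates, were grown with or without doxycycline from 24 h before compound addition to switch on EWS-FLI1 shRNA knockdown, then exposed for three days to library compounds at two or more concentrations or to DMSO controls. Signals were LOESS-corrected plate by plate, normalised to the negative-control median and log2-transformed.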

[1] = 0.25 µM, library screen: screen1, EWS-FLI1 expression: high (no doxycycline)
[2] = 0.25 µM, library screen: screen1, EWS-FLI1 expression: low (doxycycline-induced shRNA knockdown)
[3] = 0.25 µM, library screen: screen2, EWS-FLI1 expression: high (no doxycycline)
[4] = 0.25 µM, library screen: screen2, EWS-FLI1 expression: low (doxycycline-induced shRNA knockdown)
[5] = 2.5 µM, library screen: screen1, EWS-FLI1 expression: high (no doxycycline)
[6] = 2.5 µM, library screen: screen1, EWS-FLI1 expression: low (doxycycline-induced shRNA knockdown)
[7] = 2.5 µM, library screen: screen2, EWS-FLI1 expression: high (no doxycycline)
[8] = 2.5 µM, library screen: screen2, EWS-FLI1 expression: low (doxycycline-induced shRNA knockdown)

Measured: cell viability (log2)

O=c1[nH]c2ccccc2n1CCCN1CCC(n2c(=O)[nH]c3cc(Cl)ccc32)CC1
inactive: 0.103 µM, library screen: screen3, EWS-FLI1 expression: high (no doxycycline) -0.00347 | 0.103 µM, library screen: screen3, EWS-FLI1 expression: low (doxycycline-induced shRNA knockdown) 0.0546 | [1] 0.0477 | [2] 0.0315 | [3] 0.114 | [4] 0.0927 | 0.308 µM, library screen: screen3, EWS-FLI1 expression: high (no doxycycline) -0.044 | 0.308 µM, library screen: screen3, EWS-FLI1 expression: low (doxycycline-induced shRNA knockdown) 0.0558 | 0.926 µM, library screen: screen3, EWS-FLI1 expression: high (no doxycycline) -0.0666 | 0.926 µM, library screen: screen3, EWS-FLI1 expression: low (doxycycline-induced shRNA knockdown) -0.0372 | [5] 0.086 | [6] 0.163 | [7] 0.143 | [8] 0.121 | 2.8 µM, library screen: screen3, EWS-FLI1 expression: high (no doxycycline) -0.00881 | 2.8 µM, library screen: screen3, EWS-FLI1 expression: low (doxycycline-induced shRNA knockdown) 0.00821 | 8.3 µM, library screen: screen3, EWS-FLI1 expression: high (no doxycycline) 0.0255 | 8.3 µM, library screen: screen3, EWS-FLI1 expression: low (doxycycline-induced shRNA knockdown) 0.0576 | 25 µM, library screen: screen3, EWS-FLI1 expression: high (no doxycycline) -0.0563 | 25 µM, library screen: screen3, EWS-FLI1 expression: low (doxycycline-induced shRNA knockdown) -0.037

C[C@]12CCC(=O)C=C1C=CC1C2CC[C@@]2(C)C1CC[C@@]2(O)CCC(=O)O (some centres not stated)
inactive: [1] 0.0813 | [2] -0.0168 | [5] 0.15 | [6] -0.00183

CC(=O)Oc1c2c(c(CC=C(C)C)c3c1C(=O)C1=C[C@@H]4CC5C(C)(C)OC(C/C=C(\C)C(=O)O)(C4=O)[C@@]15O3)OC(C)(CCC=C(C)C)C=C2 (some centres not stated)
inactive: [1] 0.0664 | [2] 0.0597 | [5] -0.0173 | [6] 0.269

O=[N+]([O-])c1ccc2nc(N3CCNCC3)ccc2c1
inactive: [3] 0.232 | [4] 0.0568 | [7] 0.304 | [8] 0.0795

c1ccc2c(N3CCNCC3)cccc2c1
active: [7] -0.803 | [8] -0.746
inactive: [3] 0.144 | [4] -0.113

c1cc2c(cc1[C@H]1OC[C@H]3[C@@H]1CO[C@@H]3c1ccc3c(c1)OCO3)OCO2
inactive: [1] 0.0516 | [2] 0.00549 | [5] 0.0823 | [6] 0.0252

Nc1ccc2c(n1)[nH]c1ccccc12
inactive: [3] 0.156 | [4] 0.0674 | [7] 0.0702 | [8] 0.0934

CC(C)=CCCC1(C)C=Cc2c(O)c3c(c(CC=C(C)C)c2O1)OC12C(CC4CC1C(C)(C)OC2(C/C=C(/C)C(=O)O)C4O)C3=O (configuration not stated)
inactive: [1] 0.0661 | [2] 0.00238 | [5] 0.127 | [6] 0.0888

CCCN(CCC)CCc1c[nH]c2ccc(C(N)=O)cc12
inactive: [3] 0.0974 | [4] 0.0364 | [7] 0.198 | [8] 0.0861

COc1cc(C[C@@H](C)N)c(OC)cc1I
inactive: [3] 0.178 | [4] 0.0876 | [7] 0.142 | [8] 0.145

C=CCN1C[C@@H](C)N([C@H](c2ccc(C(=O)N(CC)CC)cc2)c2cccc(OC)c2)C[C@@H]1C
inactive: [3] 0.0848 | [4] 0.0464 | [7] 0.222 | [8] 0.00445

CN1[C@@H]2CC[C@H]1CC(OC(=O)[C@H](CO)c1ccccc1)C2 (some centres not stated)
inactive: [1] 0.0597 | [2] -0.0491 | [3] 0.249 | [4] 0.0903 | [5] 0.131 | [6] 0.0464 | [7] 0.139 | [8] 0.132

C=C(C)[C@H]1CN[C@H](C(=O)O)[C@H]1CC(=O)O
inactive: [1] 0.0504 | [2] -0.013 | [3] 0.231 | [4] 0.11 | [5] 0.153 | [6] -0.00319 | [7] 0.0794 | [8] -0.00687

NC1CC1c1ccccc1 (configuration not stated)
inactive: [1] 0.107 | [2] 0.128 | [5] 0.188 | [6] 0.0868

Cc1cccc(CN2CCN(Cc3ccc(F)cc3)CC2)c1
inactive: [1] 0.0688 | [2] 0.0518 | [5] 0.143 | [6] 0.0989

CC(=O)O[C@H]1C[C@@H](OC(C)=O)C(C)(C)C2C[C@@H](OC(C)=O)[C@]3(C)C(CC[C@@]4(C)[C@H](c5ccoc5)C(=O)[C@H]5O[C@]543)[C@]21C (some centres not stated)
inactive: [1] 0.0663 | [2] 0.135 | [5] 0.0399 | [6] 0.171

N[C@@H](Cn1ccc(=O)[nH]c1=O)C(=O)O
inactive: [3] 0.256 | [4] -0.00427 | [7] 0.176 | [8] 0.041

CCCN(CCC)c1c([N+](=O)[O-])cc(C(F)(F)F)cc1[N+](=O)[O-]
inactive: [1] -0.0384 | [2] 0.0507 | [5] 0.104 | [6] 0.107

CC12CCC3C(CCC4=C(O)C(=O)CCC43C)C1CCC2=O (configuration not stated)
inactive: [3] 0.133 | [4] 0.16 | [7] 0.095 | [8] 0.142

Cc1cc(O)ccc1Cl
inactive: [1] 0.0343 | [2] 0.147 | [5] 0.121 | [6] 0.0456

O=[N+]([O-])c1cc(O)c(O)c([N+](=O)[O-])c1
inactive: [1] 0.0922 | [2] 0.102 | [3] 0.101 | [4] 0.11 | [5] 0.0178 | [6] 0.0631 | [7] 0.139 | [8] 0.0735
